Source: the supplement of paper PMC10126150
Values marked as one replicate rest on one cluster of the flow cell; about a third of the high ones do not repeat.

What follows are sequences tested on ATP (assay: switch fluorescence ratio, 500 uM ATP over buffer (Cy3 cluster intensity, sum of 5 cycles each) (fold (ratio)); higher = stronger signal-on switching upon ATP binding; sequences stand for … in TCGTCGGCAGCGTCAGATGTGTATAAGAGACAGTTTTTTTTTTTTTTTTTTTTTTTTT…TC). Settings: aptamer strand: ATP DNA aptamer (quencher-CACCTGGGGGAGTATTGCGGAGGAAGG + anchor), 100 nM annealed; ATP concentration: 500 uM; one replicate.
Procedure, shortened: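 Clusters with intensities outside 100-1000 RFU were excluded. The remaining Cy3-labelled switching-strand clusters on a modified Illumina MiSeq flow-cell had been annealed to 100 nM quencher-labelled ATP aptamer and imaged in selection buffer, then after 15 min with 500 uM ATP at 22 °C, for five cycles separated by NaOH stripping and re-annealing. The fluorescence ratio, averaged per switch-domain sequence, is each cluster's summed target-cycle Cy3 intensity over its summed buffer-cycle Cy3 intensity.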
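Note: ATP exposure 15 min at 22 °C before imaging.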

Sequence	switch fluorescence ratio
CGGCCAACTG	0.992
CGGCCAGCCA	1.02
CGGCCAGGTA	1.22
CGGCCAGTGG	1.08
CGGCCGATTT	1.05
CGGCCGGATA	1.01
CGGCCGGCTT	0.993
CGGCCGTGGT	0.998
CGGCCTAATA	0.99
CGGCGAGAGA	1.01
CGGCGAGTGT	1.01
CGGCGGCAGT	1.09
CGGCGGGCGG	0.961
CGGCGTACAC	1.2
CGGCGTAGAC	1.04
CGGCGTCGTT	1.04
CGGCGTGGAG	1.05
CGGCTACAAA	1.01
CGGCTATGTC	1.05
CGGCTCCTCG	1
CGGCTCTGCG	1.02
CGGCTTGATT	1.02
CGGCTTTGTC	0.998
CGGGAAACTT	1.08
CGGGAACTTC	1.01
CGGGAATGCT	1.25

Sequence	switch fluorescence ratio
CGGGACGGGT	1.04
CGGGAGCCTC	1.07
CGGGATAGCC	0.988
CGGGATCCTT	1.05
CGGGCAGCTA	1.08
CGGGCGATTA	1.05
CGGGCTGGGA	1.02
CGGGCTTCA	1
CGGGGCAGTA	0.982
CGGGGCATGT	0.978
CGGGGCCCTT	0.966
CGGGGCCGCA	1.08
CGGGGCCTCG	0.993
CGGGGGCTAA	1.08
CGGGGTAGAG	0.988
CGGGGTCGGG	1.03
CGGGGTCTAG	1.01
CGGGTAGACA	0.944
CGGGTGAAAA	0.964
CGGGTTACGT	0.949
CGGGTTGAGG	1.01
CGGTAAACAG	0.994
CGGTAAAGCT	1.13
CGGTAAAGTC	0.988
CGGTAAGGAC	1.02
CGGTAAGTAG	1

Sequence	switch fluorescence ratio
CGGTACCCTT	1.04
CGGTACTGGT	1.01
CGGTACTTGT	0.987
CGGTAGATGG	0.979
CGGTAGCAGC	1.93
CGGTAGGGCT	0.961
CGGTAGTGGT	1.01
CGGTATTCCC	1.06
CGGTCAGTAT	1.01
CGGTCCACAT	1.02
CGGTCCCAGC	1.01
CGGTCGTTAT	1.02
CGGTCTCAGC	0.991
CGGTCTGACG	1.1
CGGTCTGCTG	0.933
CGGTCTTTAA	0.979
CGGTGACCCG	1.7
CGGTGAGGTG	1.05
CGGTGCTCAT	0.991
CGGTGGAAAC	1.02
CGGTGGACTT	0.977
CGGTGGCAAT	1.84
CGGTGTGAG	0.995
CGGTGTGAGC	1.05
CGGTGTTCCC	0.995
CGGTTAACCG	0.972

Sequence	switch fluorescence ratio
CGGTTAATTG	0.971
CGGTTACGAA	1.02
CGGTTAGCAG	0.97
CGGTTAGTTG	0.958
CGGTTGAAGT	1.01
CGGTTGACAC	1
CGGTTGAGA	0.974
CGGTTGATGA	0.988
CGGTTGATTA	0.965
CGGTTGTAG	0.963
CGGTTTGACG	1.01
CGTAAACCTT	2.48
CGTAAAGAC	2.12
CGTAAAGGAC	1.06
CGTAACACGG	0.973
CGTAACCTTC	1.88
CGTAACGTTC	1.01
CGTAATCTTA	1.01
CGTACCAGAT	1
CGTACCCATA	1.13
CGTACCCGC	1
CGTACCTCG	1.08
CGTACGGGAG	1.04
CGTACGTGCG	0.997
CGTACTTTTC	1.06
CGTAGAAATA	1.07

Sequence	switch fluorescence ratio
CGTAGAACAT	0.966
CGTAGCACAA	5.56
CGTAGGCTTT	0.981
CGTAGGGCGA	1.03
CGTAGGTTCC	1.03
CGTAGTGGA	1.03
CGTAGTTGAT	1.05
CGTAGTTGTG	1
CGTATAAAGG	0.993
CGTATATGGT	1
CGTATCGTCC	0.968
CGTATGAAGG	0.898
CGTATGCGGT	0.987
CGTATTACTG	0.883
CGTATTAGGC	0.95
CGTATTCAAA	1
CGTATTCTCG	1.05
CGTCAACCTG	1.03
CGTCAAGTCT	1.1
CGTCACTGTT	0.961
CGTCAGAC	1.2
CGTCAGGCTA	1.08
CGTCAGGTAT	0.971
CGTCAGTGAA	1.03
CGTCATAAAT	1.01
CGTCCACACT	1.26

Sequence	switch fluorescence ratio
CGTCCCATTG	1.15
CGTCCCGCCG	1.05
CGTCCGAGAA	1.41
CGTCCGAGGG	1.19
CGTCCGTACG	1.28
CGTCCTCTAA	1.3
CGTCGATTTG	0.999
CGTCGCGCTG	1.07
CGTCGGAGCA	1.07
CGTCGGCAGA	1.09
CGTCGGGCAT	0.984
CGTCGTCTCA	0.985
CGTCTAGAAT	0.987
CGTCTAGTTC	0.999
CGTCTATTCT	0.976
CGTCTCGAAA	1.02
CGTCTCGTCA	1.01
CGTCTGACCC	1.01
CGTGAATAA	1.15
CGTGAATTCA	1.04
CGTGACACTT	1
CGTGACATCG	0.895
CGTGACCGGT	0.948
